Experimental data reported in PMC4336329 (PLoS ONE, 2015).
Hit rate of the full screen: of about 310,000 compounds, about 2,200 (0.71%) showed an effect of 50% or more. The effect is printed as a negative number. The list shows a part of the results.

molecular target: human ether-à-go-go-related gene (hERG) potassium channel (human, UniProt Q12809); assay: primary screen, population patch clamp on CHO cells stably expressing hERG
Sequence (Q12809 whole entry, looked up): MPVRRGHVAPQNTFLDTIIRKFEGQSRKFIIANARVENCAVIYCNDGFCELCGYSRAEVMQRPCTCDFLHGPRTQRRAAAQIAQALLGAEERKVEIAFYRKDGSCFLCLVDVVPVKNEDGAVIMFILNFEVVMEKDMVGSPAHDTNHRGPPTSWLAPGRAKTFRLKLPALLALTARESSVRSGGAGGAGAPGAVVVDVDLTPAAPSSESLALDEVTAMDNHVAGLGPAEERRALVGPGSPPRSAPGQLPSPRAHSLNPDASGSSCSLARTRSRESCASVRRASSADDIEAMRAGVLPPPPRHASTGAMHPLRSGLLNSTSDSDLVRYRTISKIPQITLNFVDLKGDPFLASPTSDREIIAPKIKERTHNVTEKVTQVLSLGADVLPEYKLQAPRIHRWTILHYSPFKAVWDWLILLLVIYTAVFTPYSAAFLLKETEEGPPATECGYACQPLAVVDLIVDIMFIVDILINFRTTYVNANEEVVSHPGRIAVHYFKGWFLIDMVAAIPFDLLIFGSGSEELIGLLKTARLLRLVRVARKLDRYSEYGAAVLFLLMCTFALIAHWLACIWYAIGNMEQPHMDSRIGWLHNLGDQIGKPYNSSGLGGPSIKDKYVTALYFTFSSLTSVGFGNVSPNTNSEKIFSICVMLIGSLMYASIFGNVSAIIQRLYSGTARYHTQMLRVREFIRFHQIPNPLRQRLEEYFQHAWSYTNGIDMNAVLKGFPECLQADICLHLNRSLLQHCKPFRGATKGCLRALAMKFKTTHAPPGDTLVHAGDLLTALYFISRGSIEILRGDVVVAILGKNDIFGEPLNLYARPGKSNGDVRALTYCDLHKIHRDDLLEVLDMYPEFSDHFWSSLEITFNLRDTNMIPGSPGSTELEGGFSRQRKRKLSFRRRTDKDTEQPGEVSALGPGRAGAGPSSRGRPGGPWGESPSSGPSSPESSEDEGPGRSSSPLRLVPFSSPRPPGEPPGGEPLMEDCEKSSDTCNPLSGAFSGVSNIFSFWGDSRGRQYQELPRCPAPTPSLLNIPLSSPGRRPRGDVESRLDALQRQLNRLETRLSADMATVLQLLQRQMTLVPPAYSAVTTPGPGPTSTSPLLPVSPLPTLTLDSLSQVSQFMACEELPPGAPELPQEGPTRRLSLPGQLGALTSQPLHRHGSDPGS

Row | Compound | hERG current change (%, negative = inhibition) at 1uM [%]
1 | CCc1cccc(NC(=S)Nc2cccc3ccccc23)c1 | 12.1
2 | COc1ccc(-c2nc(=S)c3c(n2Cc2cccnc2)CC(C)(C)OC3)cc1 | 10.7
3 | CC(=O)Nc1ccc(S(=O)(=O)N[C@@H](C)C(=O)N(C)Cc2cccs2)cc1 | 11.6
4 | O=C(NCc1ccc(Cl)cc1)c1ccccc1Oc1ccccc1 | 4.89
5 | O=C(NCC1CCCO1)c1sc2ccccc2c1Cl (centres unmarked) | 11.3
6 | Cc1ccc2nc(N3CCN(C(=O)CCCC(=O)O)CC3)nc(-c3ccccc3)c2c1 | 0.553
7 | Cn1cc(CNC(=O)COc2ccc(Cl)cc2Cl)cn1 | 13.3
8 | O=C(OCC(=O)N1CCOCC1)c1ccc2c(c1)OCCO2 | 7.47
9 | CCOc1cc(C=O)ccc1OCCCN1C(=O)NC(C)(C)C1=O | 14
10 | CC1(C)CC(N2CCN(CCO)CC2)=CC(=S)N1 | 12.1
11 | O=C(Nc1ccc(F)cc1)c1c(O)c2c(n(Cc3ccccc3)c1=O)CCCC2 | -2.97
12 | O=C(CSc1nnc(-c2ccncc2)n1-c1ccc(F)cc1)NNC(=O)c1cccc(O)c1 | -1.06
13 | COc1ccc(-c2ccc(SCC(=O)c3ccc(F)cc3)nn2)cc1OC | 6.12
14 | COc1ccc(CNN2CCCCC2C(=O)Nc2ccc(OC)c(OCC(C)C)c2)cc1OC (centres unmarked) | -4.36
15 | COc1cc(S(=O)(=O)NCCCN2CCOCC2)ccc1-n1cnnn1.O=C(O)C(=O)O | 7.1
16 | Nc1ccc(C(=O)C(=O)c2ccccc2)cc1 | 10.4
17 | O=C1c2ccccc2NC(c2ccc(Cl)cc2Cl)N1O (centres unmarked) | 11.1
18 | O=C1CC(C(=O)N2CCC(N3CCC(C(=O)NC4CC4)CC3)CC2)c2ccccc21 (centres unmarked) | -0.352
19 | CCN(CC)CCN1C(=O)c2oc3ccccc3c(=O)c2C1c1ccc(F)cc1 (centres unmarked) | -0.934
20 | O=C(Nc1ccc(Cl)cc1)C1CCCN(c2ncnc3c2nc2n3CCCCC2)C1 (centres unmarked) | 5.78
21 | Cc1ccc(S(=O)(=O)N(CCC(=O)Nc2ccc(OC(F)(F)F)cc2)c2ccccc2)cc1 | 1.05
22 | Cc1ccc2[nH]c(C(=O)N3CCCC(Nc4ccc(F)cc4)C3)cc2c1 (centres unmarked) | 9.25

Row | Compound | hERG current change (%, negative = inhibition) at 1uM [%]
23 | Cc1ccc(S(=O)(=O)c2cn(C)c3cc(N4CCN(C)CC4)c(F)cc3c2=O)cc1 | 5.39
24 | COc1ccccc1-c1nnc(-c2ccc(F)cc2)o1 | 4.4
25 | CN(C)S(=O)(=O)c1cccc(NC(=O)c2cc3ccccc3o2)c1 | -1.27
26 | O=C(Cc1ccccc1)NC(Nc1cccc2ccccc12)C(Cl)(Cl)Cl (centres unmarked) | 9.32
27 | COC(=O)C(C)Sc1ccc2nnc(CCNS(=O)(=O)c3ccccc3)n2n1 (centres unmarked) | 8.9
28 | CC(=O)Nc1ccc(CN2CCN(C3CCCC3)C(CCO)C2)cc1 (centres unmarked) | 5.96
29 | Cc1ccccc1NC(=O)CCN1C(=O)c2ccccc2C1=O | 4.44
30 | CC(=O)Nc1ccccc1C(=O)OCC(=O)c1ccc2c(c1)OCCO2 | 13.5
31 | CCN1CCCC1CNC(=O)c1ccc(Sc2ccccc2Cl)c([N+](=O)[O-])c1 (centres unmarked) | -11.2
32 | CCn1cc(-c2csc(N)n2)c(C)n1 | 14.6
33 | O=S1(=O)CCN2C=C(Cl)C=C(Cl)C2=N1 | 12.2
34 | CC1CC(C)CN(C(=O)c2cc3c(s2)CCC3)C1 (centres unmarked) | 9.38
35 | CC(=O)c1c(C)n(-c2ccccc2)c2ccc(OCC(O)CN3CCOCC3)cc12 (centres unmarked) | 9.72
36 | O=C(c1cc(-c2ccc(Cl)cc2)n[nH]1)N1CCN(C(=O)c2ccco2)CC1 | -69.3
37 | Cc1nc(Nc2nc(CSc3ccc(Cl)cc3)cc(=O)[nH]2)nc2ccccc12 | 1.09
38 | COc1ccc(NC(C)=O)cc1NC(=O)CSc1nc2ncccc2[nH]1 | 3.98
39 | CCN(CC)CCCNC(=O)c1ccc(OCC(=O)Nc2ccccc2C(F)(F)F)c(OC)c1 | -48.1
40 | Brc1ccc(-c2nnc(-c3cccnc3)c3conc23)cc1 | 13.7
41 | Br.CCc1ccc(C2=CSC3=NCCN23)cc1 | 1.72
42 | O=C(N/N=C/c1c[nH]c2ccccc12)c1cc2ccccc2o1 | 8.92
43 | CCOC(=O)c1ccc(N=NN(C)C)cc1 | 3.99
44 | COc1cccc(NC(=O)CSc2nc3c(sc4ccccc43)c(=O)n2CCN(C)C)c1.Cl | -1.91
